Usually IC50 stands for the concentration that inhibits the measured activity by half.

In the assay the test system is MLKL phosphorylation, HT29-L23 human colorectal adenocarcinoma cells. Put plainly: cells. Particulars: read-out: pMLKL HCS Cell Assay (IC50, uM).
Take `Nc1ncnn2c(-c3cccc(C(=O)N[C@@H]4CN(C(=O)C5CC(F)(F)C5)C[C@@H]4F)c3F)cc(C(F)(F)F)c12` [Example 768, 3-[4-amino-5-(trifluoromethyl)pyrrolo[2,1-f][1,2,4]triazin-7-yl]-N-[(3R,4S)-1-(3,3-difluorocyclobutanecarbonyl)-4-fluoropyrrolidin-3-yl]-2-fluorobenzamide]: the IC50 was 0.082 µM.

Regarding `Cc1ncc(-c2cc(C(F)(F)F)c3c(N)ncnn23)cc1C(=O)Nc1cn(Cc2ccc(Cl)cc2)cn1` [Example 1808, 5-(4-amino-5-(trifluoromethyl)pyrrolo[2,1-f][1,2,4]triazin-7-yl)-N-(1-(4-chlorobenzyl)-1H-imidazol-4-yl)-2-methylnicotinamide], the IC50 came to 0.00075 µM.

Regarding `Cc1ccc(-c2cc(C(F)(F)F)c3c(N)ncnn23)cc1C(=O)N[C@@H]1CN(C(=O)c2ccccc2)C[C@@H]1F` [Example 1017, 5-[4-amino-5-(trifluoromethyl)pyrrolo[2,1-f][1,2,4]triazin-7-yl]-N-[(3R,4S)-1-benzoyl-4-fluoropyrrolidin-3-yl]-2-methylbenzamide], the IC50 was 0.0069 µM.

Consider `[2H]C([2H])([2H])Oc1ncc(-c2cc(CN3CC(F)(F)C3)c3c(N)ncnn23)cc1C(=O)N[C@@H]1CN(C(=O)C2CC(F)(F)C2)C[C@@H]1F` [Example 1274, 5-{4-amino-5-[(3,3-difluoroazetidin-1-yl)methyl]pyrrolo[2,1-f][1,2,4]triazin-7-yl}-N-[(3R,4S)-1-(3,3-difluorocyclobutanecarbonyl)-4-fluoropyrrolidin-3-yl]-2-(methoxy-d3)nicotinamide], for which the IC50 stood at 0.00042 µM. Take `[2H]C([2H])([2H])Oc1ncc(-c2ccc3c(N)ncnn23)cc1C(=O)N[C@@H]1CN(C(=O)[C@@](C)(O)C(F)(F)F)C[C@@H]1F` [Example 1836, 5-(4-aminopyrrolo[2,1-f][1,2,4]triazin-7-yl)-N-((3R,4S)-4-fluoro-1-((R)-3,3,3-trifluoro-2-hydroxy-2-methylpropanoyl)pyrrolidin-3-yl)-2-(methoxy-d3)nicotinamide]: the IC50 amounted to 0.0091 µM. `COc1ncc(-c2cc(C(F)(F)F)c3c(N)ncnn23)cc1C(=O)NC1CN(Cc2ccnc3ccccc23)CC1F` (racemic) [Example 202, 5-[4-amino-5-(trifluoromethyl)pyrrolo[2,1-f][1,2,4]triazin-7-yl]-N-{4-fluoro-1-[(quinolin-4-yl)methyl]pyrrolidin-3-yl}-2-methoxypyridine-3-carboxamide]: the IC50 stood at 0.135 µM. Turning to `Nc1ncnn2c(-c3cccc(C(=O)N[C@@H]4CN(C(=O)C5CC(F)C5)C[C@@H]4F)c3)cc(CN3CC(F)(F)C3)c12` (stereo partly drawn) [Example 1174, 3-{4-amino-5-[(3,3-difluoroazetidin-1-yl)methyl]pyrrolo[2,1-f][1,2,4]triazin-7-yl}-N-[(3R,4S)-4-fluoro-1-(3-fluorocyclobutanecarbonyl)pyrrolidin-3-yl]benzamide], the half-maximal inhibitory concentration (IC50) stood at 0.0013 µM. With `Cc1c(F)cc(-c2cc(C(F)(F)F)c3c(N)ncnn23)cc1C(=O)N[C@@H]1CN(C(=O)CC(C)C)C[C@@H]1F` [Example 667, 5-[4-amino-5-(trifluoromethyl)pyrrolo[2,1-f][1,2,4]triazin-7-yl]-3-fluoro-N-[(3R,4S)-4-fluoro-1-(3-methylbutanoyl)pyrrolidin-3-yl]-2-methylbenzamide], the IC50 worked out at 0.0026 µM. Next, `COc1ncccc1C(=O)N1C[C@H](F)[C@H](NC(=O)c2cc(-c3cc(C(F)(F)F)c4c(N)ncnn34)ccc2C)C1` [Example 1027, 5-[4-amino-5-(trifluoromethyl)pyrrolo[2,1-f][1,2,4]triazin-7-yl]-N-[(3R,4S)-4-fluoro-1-(2-methoxypyridine-3-carbonyl)pyrrolidin-3-yl]-2-methylbenzamide]: 0.168 µM; `Cc1ncc(-c2cc(C(F)(F)F)c3c(N)ncnn23)cc1C(=O)NCC[C@H](O)c1ccc(Cl)cc1` [Example 169, 5-[4-amino-5-(trifluoromethyl)pyrrolo[2,1-f][1,2,4]triazin-7-yl]-N-[(3S)-3-(4-chlorophenyl)-3-hydroxypropyl]-2-methylpyridine-3-carboxamide]: 0.0017 µM; `CCc1ccc(-c2cc(C(F)(F)F)c3c(N)ncnn23)cc1C(=O)N[C@@H]1CN(C(=O)C2CC(F)C2)C[C@@H]1F` (stereo partly drawn) [Example 969, 5-[4-amino-5-(trifluoromethyl)pyrrolo[2,1-f][1,2,4]triazin-7-yl]-2-ethyl-N-[(3R,4S)-4-fluoro-1-(3-fluorocyclobutanecarbonyl)pyrrolidin-3-yl]benzamide]: 0.0082 µM. Turning to `COc1ncc(-c2cc(CN3CCC(F)(F)CC3)c3c(N)ncnn23)cc1C(=O)N[C@@H]1CN(C(=O)OCC(F)(F)F)C[C@@H]1F` [Example 1553, 2,2,2-trifluoroethyl (3R,4S)-3-(5-{4-amino-5-[(4,4-difluoropiperidin-1-yl)methyl]pyrrolo[2,1-f][1,2,4]triazin-7-yl}-2-methoxypyridine-3-amido)-4-fluoropyrrolidine-1-carboxylate], the IC50 stood at 0.0018 µM. In the case of `COc1ncc(-c2cc(C(F)(F)F)c3c(N)ncnn23)cc1C(=O)N[C@@H]1CN(C(=O)O[C@@H](CO)CC(C)C)C[C@@H]1F` [Example 1418, (R)-1-Hydroxy-4-methylpentan-2-yl (3R,4S)-3-(5-(4-amino-5-(trifluoromethyl)pyrrolo[2,1-f][1,2,4]triazin-7-yl)-2-methoxynicotinamido)-4-fluoropyrrolidine-1-carboxylate], the IC50 stood at 0.132 µM. As for `Cc1cc(C)c(-c2cc(C(F)(F)F)c3c(N)ncnn23)cc1C(=O)N1CCC[C@H](Cc2ccc(F)cc2)C1` [Example 541, 7-{5-[(3R)-3-[(4-fluorophenyl)methyl]piperidine-1-carbonyl]-2,4-dimethylphenyl}-5-(trifluoromethyl)pyrrolo[2,1-f][1,2,4]triazin-4-amine], the IC50 was 0.404 µM. Next, `COc1ncc(-c2cc(CN3CCN(C)CC3)c3c(N)ncnn23)cc1C(=O)N[C@@H]1CN(C(=O)C2CC(F)(F)C2)C[C@@H]1F` [Example 501, 5-{4-amino-5-[(4-methylpiperazin-1-yl)methyl]pyrrolo[2,1-f][1,2,4]triazin-7-yl}-N-[(3R,4S)-1-(3,3-difluorocyclobutanecarbonyl)-4-fluoropyrrolidin-3-yl]-2-methoxypyridine-3-carboxamide]: 0.129 µM; `COc1c(F)cc(-c2cc(C(F)(F)F)c3c(N)ncnn23)cc1C(=O)N[C@@H]1CN(C(=O)C2(F)CC2)C[C@@H]1F` [Example 688, 5-[4-amino-5-(trifluoromethyl)pyrrolo[2,1-f][1,2,4]triazin-7-yl]-3-fluoro-N-[(3R,4S)-4-fluoro-1-(1-fluorocyclopropanecarbonyl)pyrrolidin-3-yl]-2-methoxybenzamide]: 0.029 µM; `Cc1c(F)cc(-c2cc(CN3CC(F)(F)C3)c3c(N)ncnn23)cc1C(=O)N[C@@H]1CN(C(=O)OC(C)(C)C)C[C@@H]1F` [Example 1561, tert-butyl (3R,4S)-3-(5-{4-amino-5-[(3,3-difluoroazetidin-1-yl)methyl]pyrrolo[2,1-f][1,2,4]triazin-7-yl}-3-fluoro-2-methylbenzamido)-4-fluoropyrrolidine-1-carboxylate]: 0.00067 µM. For `CCC(O)(C(=O)N1C[C@H](F)[C@H](NC(=O)c2cc(-c3cc(C(F)(F)F)c4c(N)ncnn34)cc(F)c2OC)C1)C(F)(F)F` (stereo partly drawn) [Example 692, 5-[4-amino-5-(trifluoromethyl)pyrrolo[2,1-f][1,2,4]triazin-7-yl]-3-fluoro-N-[(3R,4S)-4-fluoro-1-[2-hydroxy-2-(trifluoromethyl)butanoyl]pyrrolidin-3-yl]-2-methoxybenzamide], the concentration for half-maximal inhibition (IC50) was determined as 0.015 µM. In the case of `Cc1cc(F)c(-c2cc(C(F)(F)F)c3c(N)ncnn23)cc1C(=O)N[C@@H]1CN(C(=O)C2(C(F)(F)F)CCC2)C[C@@H]1F` [Example 798, 5-[4-amino-5-(trifluoromethyl)pyrrolo[2,1-f][1,2,4]triazin-7-yl]-4-fluoro-N-[(3R,4S)-4-fluoro-1-[1-(trifluoromethyl)cyclobutanecarbonyl]pyrrolidin-3-yl]-2-methylbenzamide], the IC50 was found to be 0.0047 µM. In the case of `COc1ncc(-c2cc(C(F)(F)F)c3c(N)ncnn23)cc1C(=O)N[C@@H]1CN(S(=O)(=O)Cc2cccc(C)c2)C[C@@H]1F` [Example 1473, 5-[4-amino-5-(trifluoromethyl)pyrrolo[2,1-f][1,2,4]triazin-7-yl]-N-[(3R,4S)-4-fluoro-1-[(3-methylphenyl)methanesulfonyl]pyrrolidin-3-yl]-2-methoxypyridine-3-carboxamide], the IC50 stood at 0.012 µM.

Turning to `[2H]C([2H])([2H])Oc1ncc(-c2cc(CN3CC(F)(F)C3)c3c(N)ncnn23)cc1C(=O)N[C@@H]1CN(C(=O)[C@@](C)(O)C(F)(F)F)C[C@@H]1F` [Example 1299, 5-{4-amino-5-[(3,3-difluoroazetidin-1-yl)methyl]pyrrolo[2,1-f][1,2,4]triazin-7-yl}-N-[(3R,4S)-4-fluoro-1-[(2R)-3,3,3-trifluoro-2-hydroxy-2-methylpropanoyl]pyrrolidin-3-yl]-2-(methoxy-d3)nicotinamide], the IC50 worked out at 0.00058 µM. `Nc1ncnn2c(-c3cccc(C(=O)N[C@@H]4CN(C(=O)C5CCC5)C[C@@H]4F)c3F)cc(C(F)(F)F)c12` [Example 763, 3-[4-amino-5-(trifluoromethyl)pyrrolo[2,1-f][1,2,4]triazin-7-yl]-N-[(3R,4S)-1-cyclobutanecarbonyl-4-fluoropyrrolidin-3-yl]-2-fluorobenzamide]: the IC50 was determined as 0.043 µM. On to `COC[C@@H]1C[C@H](NC(=O)c2cc(-c3cc(C(F)(F)F)c4c(N)ncnn34)cnc2OC)CN1C(=O)OC(C)(C)C` (racemic) [Example 1699, tert-butyl (2SR,4SR)-4-(5-(4-amino-5-(trifluoromethyl)pyrrolo[2,1-f][1,2,4]triazin-7-yl)-2-methoxynicotinamido)-2-(methoxymethyl)pyrrolidine-1-carboxylate], for which the IC50 is 0.487 µM. For `COc1ncc(-c2cc(C(F)(F)F)c3c(N)ncnn23)cc1C(=O)NC1CN(C2CCc3ccc(F)cc32)C[C@@H]1F` (stereo partly drawn) [Example 1368, 5-[4-amino-5-(trifluoromethyl)-pyrrolo[2,1-f][1,2,4]triazin-7-yl]-N-[(3R,4S)-4-fluoro-1-(6-fluoro-2,3-dihydro-1H-inden-1-yl)pyrrolidin-3-yl]-2-methoxypyridine-3-carbox-amide], the IC50 is 0.026 µM.

The values are drawn from patent publication US11618753B2 (priority 2018, dated 2023).
